Data on 23 compounds can be found in PubChem BioAssay AID2202238 (Ras Initiative Chemistry Research Team, Frederick National …, 2025).

The other results are listed elsewhere or left out. These are further read-outs of the screen, such as a control signal, another cell line or another target. No call is given for them.

The test addresses GTPase KRas (Homo sapiens) (UniProt P01116). The experiment in a line: Covalent labelling of cysteine mutants by fragments, read by mass spectrometry (AID 2202238). The settings on record: KRAS G12D cysteine mutants, disulfide tethering, MALDI-TOF labeling, stronger effect = higher value, fragment at 500 µM. More on the design: protein at 5 µM with 500 µM competing thiol for 1.5 h.
Setting [1] is: measured here: G75C mutant labeling.
Setting [2] is: measured here: H94C mutant labeling.
Where [3] appears, read: measured here: I36C mutant labeling.
[4] abbreviates: measured here: L120C mutant labeling.
The mark [5] stands for this setting: measured here: M67C mutant labeling.
Where [6] appears, read: measured here: M72C mutant labeling.
[7] abbreviates: measured here: N86C mutant labeling.
Setting [8] is: measured here: P121C mutant labeling.
The mark [9] stands for this setting: measured here: S122C mutant labeling.
The mark [10] stands for this setting: measured here: S136C mutant labeling.
The mark [11] stands for this setting: measured here: G60C mutant labeling.
Setting [12] is: measured here: N26C mutant labeling.

UniProt P01116, sequence (P01116 whole entry, looked up, the tested form may be a part): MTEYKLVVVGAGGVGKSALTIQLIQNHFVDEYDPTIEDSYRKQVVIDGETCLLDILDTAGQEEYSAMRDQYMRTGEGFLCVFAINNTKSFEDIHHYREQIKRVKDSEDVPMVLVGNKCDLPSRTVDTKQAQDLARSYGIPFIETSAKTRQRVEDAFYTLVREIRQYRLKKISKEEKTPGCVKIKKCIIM

As to `O=C(CCS)N1CCCc2c(F)cc(F)cc21`, the percent labeling reads like this: under setting [1], 26.7%; under setting [2], 41.2%; under setting [3], 21.9%; under setting [4], 15.3%; under setting [5], 21.6%; under setting [6], 62.6%. Besides, the percent labeling was 23% under setting [7], 24.7% under setting [8], 18% under setting [9] and 41.1% under setting [10].
In turn, `O=C(CCS)NC1COc2ccccc2C1O` (stereo not drawn) gave a percent labeling under setting [1] of 12%; a percent labeling under setting [2] of 25.9%; a percent labeling under setting [3] of 36.7%; a percent labeling under setting [4] of 28.3%; a percent labeling under setting [5] of 33.9%; a percent labeling under setting [6] of 20.4%. Moreover, the percent labeling was determined as 17.4% under setting [7], 29.5% under setting [8], 33.6% under setting [9] and 51.3% under setting [10].
Turning to `O=C(NCCS)c1ccc2c(c1)CCCN2C(=O)c1ccccc1`, the percent labeling by setting is: under setting [11], 22.1%; under setting [1], 9.1%; under setting [2], 12.5%; under setting [3], 12.7%; under setting [4], 10%; under setting [5], 13.8%. In addition, the percent labeling under setting [6] turned out to be 20.3%; the percent labeling under setting [12] is 29.2%; the percent labeling under setting [7] is 6.1%; the percent labeling under setting [8] was determined as 8.7%; the percent labeling under setting [9] amounted to 6.2%; the percent labeling under setting [10] stood at 23.9%.
`Cc1c(C(=O)NCCS)c(=O)oc2ccc(O)cc12`: the percent labeling by setting is: under setting [11], 42%; under setting [1], 15.8%; under setting [2], 26.8%; under setting [3], 30.4%; under setting [4], 39.1%; under setting [5], 39%. The percent labeling reads like this: under setting [6], 45.1%; under setting [12], 50.4%; under setting [7], 40.6%; under setting [8], 51.1%; under setting [9], 29.9%; under setting [10], 50.2%.
Take `CC(C)(NC(=O)c1ccccc1)C(=O)NCCS`: the percent labeling turned out to be 21.7% under setting [11]; 6.5% under setting [1]; 26.5% under setting [2]; 16.6% under setting [3]; 51.5% under setting [4]; 24% under setting [5]. This compound returned a percent labeling under setting [6] of 18.8%; a percent labeling under setting [12] of 27.7%; a percent labeling under setting [7] of 21.1%; a percent labeling under setting [8] of 27%; a percent labeling under setting [9] of 25.3%; a percent labeling under setting [10] of 42.6%.
Take `CC(C)(C(=O)NCCS)c1csc(-c2cccs2)n1`: the percent labeling by setting is: under setting [11], 37%; under setting [1], 20.3%; under setting [2], 27.6%; under setting [3], 15.8%; under setting [4], 26.1%; under setting [5], 21.3%. In addition, the percent labeling runs as follows: under setting [6], 37.6%; under setting [12], 33.4%; under setting [7], 15.7%; under setting [8], 19.6%; under setting [9], 15.9%; under setting [10], 25.7%.
`O=C(NCCS)c1cc2c(Cl)cncc2s1`: the percent labeling came to 22.1% under setting [11]; 13% under setting [1]; 14.6% under setting [2]; 11% under setting [3]; 13.4% under setting [4]; 12.3% under setting [5]. Further, the percent labeling runs as follows: under setting [6], 40.2%; under setting [12], 29.4%; under setting [7], 10.5%; under setting [8], 11.2%; under setting [9], 8.9%; under setting [10], 19.5%.
`O=C(CCS)Nc1ccc(OCc2cccc(F)c2)c(F)c1`: the percent labeling by setting is: under setting [1], 7%; under setting [2], 12.4%; under setting [3], 35.5%; under setting [4], 7%; under setting [5], 30.7%; under setting [6], 34.6%. The compound also came in with a percent labeling under setting [7] of 9.8%, a percent labeling under setting [8] of 7.8%, a percent labeling under setting [9] of 0% and a percent labeling under setting [10] of 21.8%.
Take `O=C(NCCS)c1cnn(Cc2ccccc2Cl)c1`: the percent labeling was determined as 40.8% under setting [11]; 23.8% under setting [1]; 21.1% under setting [2]; 20.5% under setting [3]; 31.1% under setting [4]; 58.3% under setting [5]. Also, the percent labeling is, setting by setting: under setting [6], 50.6%; under setting [12], 34.5%; under setting [7], 19.7%; under setting [8], 19.8%; under setting [9], 18.6%; under setting [10], 35%.
With `O=C(NCCS)C1CCN(S(=O)(=O)c2cccnc2)CC1`, the percent labeling under setting [11] turned out to be 35.3%; the percent labeling under setting [1] amounted to 19.9%; the percent labeling under setting [2] amounted to 33.6%; the percent labeling under setting [3] came to 32.6%; the percent labeling under setting [4] is 31.8%; the percent labeling under setting [5] worked out at 36.9%. This compound gave a percent labeling under setting [6] of 18.3%; a percent labeling under setting [12] of 43.1%; a percent labeling under setting [7] of 28.4%; a percent labeling under setting [8] of 31.7%; a percent labeling under setting [9] of 33.9%; a percent labeling under setting [10] of 39.7%.
For `O=C(CCS)NCc1cc(-c2ccc3c(c2)OCCO3)on1`, the percent labeling came to 4.8% under setting [1]; 14% under setting [2]; 21.4% under setting [3]; 10.4% under setting [4]; 15.3% under setting [5]; 55.5% under setting [6]. For the same compound, the percent labeling stood at 7.9% under setting [7], 12.2% under setting [8], 10.1% under setting [9] and 18.8% under setting [10].
As for `O=C(NCCS)c1cc(Br)c2nccnc2c1`, the percent labeling runs as follows: under setting [11], 46.2%; under setting [1], 23.7%; under setting [2], 25.8%; under setting [3], 18.8%; under setting [4], 21.2%; under setting [5], 23.6%. Besides, the percent labeling reads like this: under setting [6], 61.5%; under setting [12], 35.9%; under setting [7], 17.9%; under setting [8], 17.9%; under setting [9], 14.3%; under setting [10], 28.7%.
With `COc1ccc2c(c1)C(CCNC(=O)CCS)=CC2`, the percent labeling is, setting by setting: under setting [1], 12.4%; under setting [2], 20.3%; under setting [3], 23.4%; under setting [4], 24.9%; under setting [5], 21.5%; under setting [6], 24.4%. The percent labeling runs as follows: under setting [7], 19.9%; under setting [8], 12.1%; under setting [9], 17.6%; under setting [10], 22.3%.
Take `O=C(NCCS)c1ccc(Cn2cccn2)cc1`: the percent labeling is, setting by setting: under setting [11], 29.2%; under setting [1], 17.3%; under setting [2], 31.7%; under setting [3], 35.9%; under setting [4], 41.2%; under setting [5], 33.1%. Moreover, the percent labeling by setting is: under setting [6], 35.7%; under setting [12], 39.3%; under setting [7], 28.9%; under setting [8], 29.7%; under setting [9], 14.8%; under setting [10], 53.7%.
With `O=C(CCS)Nc1ccc(-n2cncn2)nc1`, the percent labeling by setting is: under setting [1], 24.5%; under setting [2], 18.6%; under setting [3], 32%; under setting [4], 18.5%; under setting [5], 23.1%; under setting [6], 33.5%. In addition, the percent labeling is, setting by setting: under setting [7], 17.5%; under setting [8], 28.1%; under setting [9], 25.2%; under setting [10], 32.2%.
As to `Cc1cc2scc(CC(=O)NCCS)c2s1`, the percent labeling is, setting by setting: under setting [11], 34.7%; under setting [1], 16%; under setting [2], 19.7%; under setting [3], 12.5%; under setting [4], 22.8%; under setting [5], 13.6%. For the same compound, the percent labeling turned out to be 38.7% under setting [6]; 26.8% under setting [12]; 14.8% under setting [7]; 16.1% under setting [8]; 14.1% under setting [9]; 22.7% under setting [10].
For `COC(=O)c1ccc2[nH]cc(C3CCN(C(=O)CCS)CC3)c2c1`, the percent labeling amounted to 5.6% under setting [1]; 12.3% under setting [2]; 8% under setting [3]; 6.9% under setting [4]; 12.3% under setting [5]; 21% under setting [6]. Further, the percent labeling by setting is: under setting [7], 6.5%; under setting [8], 12.3%; under setting [9], 6.2%; under setting [10], 22%.
`O=C(CCS)NCc1cnn(-c2ccccc2)c1`: the percent labeling reads like this: under setting [1], 11.2%; under setting [2], 16.9%; under setting [3], 27%; under setting [4], 17.7%; under setting [5], 38.2%; under setting [6], 31.7%. In addition, the percent labeling under setting [7] worked out at 8.1%, the percent labeling under setting [8] was found to be 27.8%, the percent labeling under setting [9] stood at 19.1% and the percent labeling under setting [10] worked out at 36.2%.
As for `O=C(NCCS)c1csc(CCc2ccccc2)n1`, the percent labeling runs as follows: under setting [11], 22.5%; under setting [1], 10.8%; under setting [2], 18.3%; under setting [3], 10.6%; under setting [4], 18.1%; under setting [5], 17.8%. In addition, the percent labeling amounted to 34.8% under setting [6]; 28.9% under setting [12]; 14.3% under setting [7]; 15.8% under setting [8]; 12.5% under setting [9]; 21.2% under setting [10].
For the compound `CC(C(=O)NCCS)n1ccnc1-c1ccccc1` (stereo not drawn), the percent labeling runs as follows: under setting [11], 36.4%; under setting [1], 14.4%; under setting [2], 33.3%; under setting [3], 26.8%; under setting [4], 30.5%; under setting [5], 45.9%. The percent labeling reads like this: under setting [6], 24.7%; under setting [12], 36.5%; under setting [7], 28.4%; under setting [8], 29.4%; under setting [9], 31.2%; under setting [10], 46%.
For `O=C(NCCS)C1COc2cc(F)ccc2C1` (stereo not drawn), the percent labeling came out at 33.8% under setting [11]; 9.8% under setting [1]; 16.5% under setting [2]; 22.3% under setting [3]; 20.8% under setting [4]; 15.7% under setting [5]. For the same compound, the percent labeling reads like this: under setting [6], 27%; under setting [12], 32.6%; under setting [7], 10%; under setting [8], 14.9%; under setting [9], 13.9%; under setting [10], 26.7%.
In turn, `CC(C(=O)NCCS)c1cn(C)c2ccccc12` (stereo not drawn) yielded a percent labeling under setting [11] of 54.8%; a percent labeling under setting [1] of 25.3%; a percent labeling under setting [2] of 31.8%; a percent labeling under setting [3] of 24.7%; a percent labeling under setting [4] of 35.6%; a percent labeling under setting [5] of 24.7%. The percent labeling under setting [6] was 40.7%; the percent labeling under setting [12] was determined as 34.6%; the percent labeling under setting [7] was found to be 27.9%; the percent labeling under setting [8] was 22%; the percent labeling under setting [9] was determined as 20%; the percent labeling under setting [10] was 41%.
With `O=C(CCS)N(Cc1ccco1)c1ccccc1`, the percent labeling runs as follows: under setting [1], 19.4%; under setting [2], 30.6%; under setting [3], 24%; under setting [4], 19.2%; under setting [5], 28.9%; under setting [6], 33.4%. Moreover, the percent labeling was 14.3% under setting [7], 27.9% under setting [8], 26.1% under setting [9] and 45.7% under setting [10].
